PubChem BioAssay AID887 (National Center for Advancing Translational Sciences (NCATS), 2007)
Where “and” joins values, the source holds several entries; their conditions need not be identical. Equal values may be shown once. The campaign covered roughly 74,000 compounds. About 1,100 (1.5%) were called active. Inconclusive results, whose numbers are uncertain, are shown with a selection of clear calls. Calls come from the whole dose curve; as a rule, active = well fitted inhibition curve with a large enough effect; inconclusive = small, poorly fitted or top-dose-only effect; inactive = no such curve, though single readings can be large or run the other way. A potency beside an inconclusive call is a rough fit, not a confirmed value.

target: Polyunsaturated fatty acid lipoxygenase ALOX15 (Homo sapiens) (UniProt P16050); assay: qHTS Assay for Inhibitors of 15-hLO (15-human lipoxygenase); conditions: purified 15hLO-1, xylenol orange hydroperoxide absorbance; activity change, negative = inhibition: at 57.1 µM (top of the series) unless noted; note: nearly all actives have a fitted effect of over 55% in size
Summary of the method: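 Compounds were preincubated 15 min at room temperature with 40 nM purified human enzyme (25 mM Hepes pH 7.5, 0.01% Triton X-100); 50 uM arachidonic acid reacted 6 min. Fe-xylenol orange detection, 30 min, absorbance ratio 573/405 nm.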
% is set by controls: 0 for no effect and ±100 for the full control effect; potency is the fitted concentration of half-maximal effect; tags give direction and shape of the fitted curve.

UniProt P16050, sequence (P16050 whole entry, looked up): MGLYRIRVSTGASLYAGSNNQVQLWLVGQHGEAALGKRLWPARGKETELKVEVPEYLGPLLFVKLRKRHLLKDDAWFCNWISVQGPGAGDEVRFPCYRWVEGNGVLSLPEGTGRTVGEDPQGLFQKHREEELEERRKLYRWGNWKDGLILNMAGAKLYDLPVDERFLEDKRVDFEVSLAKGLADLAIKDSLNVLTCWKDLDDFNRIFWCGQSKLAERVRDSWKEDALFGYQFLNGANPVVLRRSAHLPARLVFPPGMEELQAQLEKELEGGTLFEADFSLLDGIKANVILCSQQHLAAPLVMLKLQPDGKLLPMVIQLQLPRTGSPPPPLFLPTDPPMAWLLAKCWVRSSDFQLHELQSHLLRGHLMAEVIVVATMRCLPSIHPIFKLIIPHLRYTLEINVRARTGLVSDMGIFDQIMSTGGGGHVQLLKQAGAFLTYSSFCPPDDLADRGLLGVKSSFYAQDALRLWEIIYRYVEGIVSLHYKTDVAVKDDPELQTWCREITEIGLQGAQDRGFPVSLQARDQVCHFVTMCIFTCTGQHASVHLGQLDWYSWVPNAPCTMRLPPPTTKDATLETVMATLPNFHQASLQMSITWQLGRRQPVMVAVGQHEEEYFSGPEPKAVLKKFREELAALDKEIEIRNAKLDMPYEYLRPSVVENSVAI

Compound | Potency | activity change, negative = inhibition
CC(C)c1ccc(C2CC(=O)N3CN(Cc4ccco4)CSC3=C2C#N)cc1 (stereo not drawn) | active: 12.6 µM | –
Cn1c(=S)c2[nH]c(SCc3cccnc3)nc2n(C)c1=O | inconclusive: 3.16 µM [inhibitor, single point] | –
Cc1nn(C)c(C)c1NC(=O)CN1CCC(O)(c2ccc3c(c2)OCO3)CC1 | – | inactive: -4.54%
CC(=O)N1CCN(c2ccc(NCc3ccc(C)s3)cc2)CC1 | active: 10 µM | –
C=CCNc1nc2c(c(=O)[nH]c(=O)n2C)n1Cc1cccc(C)c1 | inconclusive: 3.16 µM [inhibitor, single point] | –
CC1(C)CC(C(=O)Nc2nccs2)CCO1 (stereo not drawn) | inconclusive: 39.8 µM [inhibitor, single point] | –
Cc1ccc2cc(C)c(SCC#N)nc2c1 | inconclusive: 15.8 µM [inhibitor, partial curve] | –
O=c1c2ccccc2sn1-c1cc(S(=O)(=O)N2CCOCC2)ccc1N1CCOCC1 | active: 15.8 µM | –
COc1ccccc1-c1nc(NCCNC(C)=O)c2ccccc2n1 | inconclusive: 25.1 µM [inhibitor, single point] | –
CSC(N)=NCCC[C@@H](N)C(=O)O | – | inactive: 10%
C/C(=N\O)c1cccc[n+]1Cc1ccccc1 | – | inactive: 1.75% [at 11.4 µM]
Cc1csc(NC(=O)NC2(C(F)(F)F)Oc3ccccc3O2)n1 | inconclusive: 15.8 µM [inhibitor, partial curve] | –
O=C(NCc1ccco1)c1csc(Nc2ccccc2Cl)n1 | inconclusive: 20 µM [inhibitor, single point] | –
S=c1[nH]nc(COc2ccccc2)n1C1CCCCC1 | inconclusive: 20 µM [inhibitor, partial curve] | –
c1ccc(-c2nnc(CN3CCCc4ccccc43)o2)cc1 | inconclusive: 12.6 µM [inhibitor, partial curve] | –
OC[C@@H](O)CNc1ncnc2ccccc12 | – | inactive: 7.99% [at 11.4 µM]
COc1ccc(C2c3c(-c4ccccc4O)n[nH]c3C(=O)N2CCc2ccc(OC)c(OC)c2)cc1 (stereo not drawn) | inconclusive: 12.6 µM [inhibitor, partial curve] | –
Cc1ccc2[nH]c(=O)c(-c3nc4cc(C)ccn4c3NCc3ccco3)cc2c1 | – | inactive: 11.3%
CCN(CC)c1ccc(NS(=O)(=O)c2ccc3c(c2)oc(=O)n3C)c(C)c1 | active: 20 µM | –
Cc1ccc2c(c1)c1c3n2CCN(C(=O)C2CC2)C3CCC1 (stereo not drawn) | inconclusive: 20 µM [inhibitor, single point] | –
Cc1nc2cnc(OCc3ccccc3)nc2n(C)c1=O | – | inactive: 11.9%
CSc1nsc(SC)c1NC(=O)OC1CCCCC1 | inconclusive: 20 µM [inhibitor, single point] | –
O=Nc1c(-c2c(O)[nH]c3ccccc23)[nH]c2ccccc12 | inconclusive: 1.26 µM [inhibitor, full curve, poor fit] | –
CNC(=O)c1c(N)sc2c1CCCCC2 | inconclusive: 20 µM [inhibitor, partial curve] | –
COc1ccc(Cl)cc1C(=O)Nc1ccccc1N1CCN(C(=O)C(C)C)CC1 | – | inactive: -15.8%
CCOC(=O)c1c(C)[nH]c(C(=O)CN2C(=O)NC(C)(c3ccc(C)cc3)C2=O)c1C (stereo not drawn) | inconclusive: 39.8 µM [inhibitor, single point] | –

Compound | Potency | activity change, negative = inhibition
CC1CCN(CC(=O)Nc2sc3c(c2C#N)CCC3)CC1 | active: 25.1 µM | –
NS(=O)(=O)c1ccc(NC(=O)CCC2CCCCC2)cc1 | – | inactive: -8.87%
O=C(CSc1ncn(-c2ccccc2)n1)Nc1ccc(Br)cn1 | active: 20 µM | –
CC(C)C1C(C#N)=C(N)SC(N)=C1C#N | inconclusive: 6.31 µM [inhibitor, single point] | –
COc1ccc(OCC(=O)c2c(O)c3ccccc3oc2=O)cc1 | inconclusive: 39.8 µM [inhibitor, single point] | –
Cc1ccc2c(c1)c(C)c(C)n2CC(O)Cn1nc(C)cc1C (stereo not drawn) | inconclusive: 0.251 µM [inhibitor, full curve, poor fit] | –
Cc1cc(C(=O)CSc2nnc(-c3cccnc3)n2-c2ccccc2F)c(C)n1C | active: 15.8 µM | –
CSc1ccc2c(c1)N(CC[C@H]1CCCCN1C)c1ccccc1S2 | inactive and inconclusive: 31.6 µM [inhibitor, single point] | –
OC[C@@H]1O[C@@H](n2cnc3c(Nc4ccccc4)ncnc32)[C@@H](O)[C@H]1O | – | inactive: -2.75%
c1ccc2[nH]c(SN3CCOCC3)nc2c1 | inconclusive: 0.1 µM [inhibitor, full curve] | –
O=C1CC(Nc2ccc(N3CCOCC3)cc2)C(=O)N1Cc1ccccc1 (stereo not drawn) | inconclusive: 39.8 µM [inhibitor, single point] | –
CC(/C(O)=C(\C#N)c1nc2ccccc2n1C)N1C(=O)c2ccccc2C1=O (stereo not drawn) | – | inactive: 17.9%
Cc1cc(N2CCOCC2)c2c(N)c(C)cc(C)c2n1 | – | inactive: 2.4%
COc1cc(Sc2ccc(C)cc2)c(OC)cc1N | inconclusive: 12.6 µM [inhibitor, partial curve] | –
COc1cc(NS(C)(=O)=O)ccc1Cc1c2ccccc2nc2ccccc12 | – | inactive: -1.06%
COC(=O)CSCc1nc2ccccc2[nH]c1=O | active: 12.6 µM | –
C=CCn1c(CC#N)nnc1N1CCOCC1 | – | inactive: 11.3%
CC1(C)c2ssc(=S)c2-c2ccccc2N1C(=O)c1ccco1 | inconclusive: 15.8 µM [inhibitor, partial curve] | –
c1ccc(C(NCCNC(c2ccccc2)c2ccccc2)c2ccccc2)cc1 | inconclusive: 39.8 µM [inhibitor, single point] | –
COc1ccc(-c2cc(=O)c3c(O)cc(O)cc3o2)cc1 | inactive | –
Cc1nnc(SCC(=O)NCc2ccc3c(c2)OCO3)s1 | – | inactive: 5.77%
O=c1c(O)c(-c2cc(O)c(O)c(O)c2)oc2cc(O)cc(O)c12 | active: 1.58 µM and active: 2.51 µM | –
O=C(Nc1ccc2c(c1)OCO2)C1CCCN1C(=O)OCc1ccccc1 (stereo not drawn) | – | inactive: -5.62% [at 11.4 µM]
CC1CCN(C(=S)c2ccccc2O)CC1 | inconclusive: 10 µM [inhibitor, partial curve] | –
CCOC(=O)N1CCN(c2nc(SC)nc3sc4c(c23)CC(C)(C)OC4)CC1 | inconclusive: 20 µM [inhibitor, partial curve] | –
O=c1c(-c2ccccc2)nc2cnc(N3CCOCC3)nc2n1C1CC1 | inconclusive: 15.8 µM [inhibitor, partial curve] | –

Compound | Potency | activity change, negative = inhibition
N#Cc1c(NC(=O)c2ccncc2)sc2c1CCC2 | inconclusive: 25.1 µM [inhibitor, single point] | –
Cc1cccc(N2CCN(C(=O)Cn3cccc3)CC2)c1C | inconclusive: 10 µM [inhibitor, partial curve] | –
CC1=C/C(=C\c2ccc3c(c2)OCO3)C(=O)S1 | inconclusive: 31.6 µM [inhibitor, single point] | –
COC(=O)C/C=C\[C@@H](C)[C@@H](/C=N\O[C@@H](C)c1cc(-c2c(C)cc(C)cc2C)no1)OC | – | inactive: -3.64% [at 11.4 µM]
C=C[C@H](N)CCC(=O)O | inactive | –
COC(=O)[C@]1(C)CCC[C@]2(C)c3ccc(C(C)C)cc3C(=O)CC12 (stereo partly drawn) | inconclusive: 1.26 µM [inhibitor, full curve] | –
O=C(CSc1nnc2ccccn12)c1ccc(OC(F)F)cc1OC(F)F | – | inactive: -42.5%
CCOC(=O)c1cnn2c(C(F)(F)F)cc(-c3ccco3)nc12 | – | inactive: 0.571%
CN(C)C(=O)c1ccc(-c2nc(NCc3cccnc3)c3ccccc3n2)cc1 | – | inactive: -19.2%
Cc1nc(N2CCOCC2)c2oc3ccccc3c2n1 | – | inactive: -28.7%
N#CC1=C(N)SC2(CCCCC2)SC1c1ccccc1 (stereo not drawn) | active: 25.1 µM | –
c1ccc(COc2nsnc2N2CCOCC2)cc1 | inconclusive: 6.31 µM [inhibitor, partial curve] | –
COc1cc(CNc2ccc3c(c2)CCC3)cc(OC)c1O | inconclusive: 3.16 µM [inhibitor, single point] | –
CSc1ccc(S(=O)(=O)Nc2ccc(N3CCOCC3)c(Cl)c2)cc1 | inconclusive: 39.8 µM [inhibitor, single point] | –
O=C(O)c1ccccc1NCc1ccncc1 | inconclusive: 31.6 µM [inhibitor, single point] | –
CCn1nc(C)c(Oc2ccccc2O)c1C | inconclusive: 31.6 µM [inhibitor, single point] | –
CCC(C)(C)n1nnnc1CN(Cc1cc2cc(OC)ccc2[nH]c1=O)C1CCCC1 | inconclusive: 31.6 µM [inhibitor, single point] | –
Cc1ccc(-c2c3c([nH]c(=S)c2C#N)CCCC3)o1 | active: 10 µM | –
Oc1c(I)cc(I)c2cccnc12 | inconclusive: 31.6 µM [inhibitor, single point] | –
O=C(Nc1cccc(Cl)c1)c1ccc2c(=O)n3c(nc2c1)CCCCC3 | inconclusive: 39.8 µM [inhibitor, single point] | –
CN(C)S(=O)(=O)c1ccc(S(=O)(=O)N(Cc2ccco2)Cc2ccccc2Cl)cc1 | – | inactive: -6.6%
O=C(NCc1ccco1)c1cc(-c2ccccc2)c(N2CCOCC2)s1 | inconclusive: 20 µM [inhibitor, partial curve] | –
COc1ccc(-n2c(=O)cnc3cnc(N(C)C)nc32)cc1 | – | inactive: 1.79%
Cc1ccccc1-c1nc(NCc2cccs2)c2ccccc2n1 | inconclusive: 25.1 µM [inhibitor, partial curve] | –
Cn1c(C(=O)N2CCN(c3ccc(Cl)cc3)CC2)cc2c(=O)[nH]c3ccccc3c21 | inconclusive: 15.8 µM [inhibitor, partial curve] | –
COc1ccc(N(C)S(=O)(=O)c2cccc(C(=O)NC3=NCCS3)c2)cc1 | – | inactive: -7.25%
